About 150 (0.041%) of roughly 370,000 compounds were called active. This list was built around the results that the source calls inconclusive (neither active nor inactive); the mix of calls is not that of the screen. Calls follow the shape of the dose curve; as a rule, active = well fitted inhibition curve with a large enough effect; inconclusive = small, poorly fitted or top-dose-only effect; inactive = flat fitted curve, though single readings scatter. No potency is given beside an inconclusive call; the fits are too rough.
Biological target: Beta-lactamase (Escherichia coli (strain K12)) (UniProt P00811)
Chain of UniProt P00811 (P00811 whole entry, looked up): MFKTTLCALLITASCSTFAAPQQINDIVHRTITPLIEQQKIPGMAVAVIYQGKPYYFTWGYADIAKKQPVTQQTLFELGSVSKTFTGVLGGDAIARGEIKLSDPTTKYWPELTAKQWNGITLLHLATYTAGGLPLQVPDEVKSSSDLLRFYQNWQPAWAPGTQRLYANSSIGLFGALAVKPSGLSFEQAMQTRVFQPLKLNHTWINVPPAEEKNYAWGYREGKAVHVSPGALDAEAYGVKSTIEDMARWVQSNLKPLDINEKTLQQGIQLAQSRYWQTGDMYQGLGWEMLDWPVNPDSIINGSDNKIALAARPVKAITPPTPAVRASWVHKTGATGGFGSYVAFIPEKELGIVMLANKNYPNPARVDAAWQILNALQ
Assay: qHTS Inhibitors of AmpC Beta-Lactamase (assay with detergent); also: nearly all actives have a fitted effect of over 25% in size;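 as to activity change, negative = inhibition: 0% = no-compound wells and -100% = no-enzyme wells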
Conditions: AmpC hydrolysis of nitrocefin, absorbance 480 nm, 0.01% Triton; activity change, negative = inhibition: at 114 µM (top of the series)
Outline: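 AmpC (5.3 nM in the dispensed reagent) in 20 mM phosphate pH 7.0 with 0.01% (detergent screen) or 0.0001% Triton X-100 was preincubated with compounds for 15 min at room temperature. Nitrocefin was then added from an 800 uM solution, and hydrolysis was followed at 480 nm.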
Potency is read from the fitted curve at half-maximal effect; tags tell the direction and shape of the fitted curve.

Compound	Potency	activity change, negative = inhibition
Cc1ccc(/C=N/NC(=S)N2CCOCC2)cc1	inconclusive [inhibitor, full curve]	–
O=C(CCCN1C(=O)c2ccccc2C1=O)Nc1c2c(nc3c1CCC3)CCC2	–	inactive: -14.5%
CC1CCN(C(=O)CNC(=O)c2cccc(OC(F)F)c2)CC1	–	inactive: -14.3%
CCOc1ccc(CN(C)C(=O)CNC(=O)Cc2cccc3ccccc23)cc1	inconclusive [inhibitor, full curve, poor fit]	–
Cc1ccc(/C=C/c2nnc(-c3ccccc3)o2)cc1	inconclusive [inhibitor, full curve]	–
COc1ccc(-c2noc(-c3cccnc3)n2)cc1OC	inconclusive [inhibitor, full curve, poor fit]	–
O=C(O)c1nn(CCSc2ccccc2F)c(=O)c2ccccc12	–	inactive: 1.2%
CN(C)S(=O)(=O)c1cccc(NC(=O)COC(=O)c2cc(=O)c3ccccc3o2)c1	–	inactive: -2.01%
O=C(/C=C/c1ccccc1)NCCCNC(=O)/C=C/c1ccccc1	–	inactive: 3.01%
O=C(OCC1COc2ccccc2O1)c1ccccc1F (stereo unspecified)	inconclusive [inhibitor, partial curve]	–
O=C(NC1CCCCC1)C(c1ccncc1)N(Cc1ccccc1)C(=O)c1ccc(-c2ccccc2)[nH]1 (stereo unspecified)	–	inactive: -2.84%
CCCN(CCC)C(=O)c1cc2c(=O)n3cccc(C)c3nc2s1	inactive	–
Cc1ccc(-c2cn3c(n2)sc2cc(C(=O)NCCCN4CCCCCC4)ccc23)cc1	–	inactive: 4.45%
CCS(=O)(=O)N1CCN(c2ccccn2)CC1	inconclusive [inhibitor, full curve, poor fit]	–
CCCCOc1ccc(/C(N)=N/O)cc1	inconclusive [inhibitor, full curve]	–
CSCC[C@H](N)C(=O)N1CCC(C(=O)N[C@H](C)C(=O)NC(C)c2ccccc2)CC1 (stereo partly specified)	inconclusive [inhibitor, partial curve]	–
O=C(OCc1ccc(O)cc1)c1c(-c2ccsc2)oc2ccc(N3CCOCC3)cc12	inconclusive [inhibitor, full curve, poor fit]	–
CN(C)CCCNS(=O)(=O)c1cc(Cl)ccc1Cl	inconclusive [inhibitor, full curve, poor fit]	–
CC1CCC/C(=C\Nc2ccc(O)cc2)C1=O (stereo unspecified)	inconclusive [inhibitor, full curve]	–
O=C1CCCC2=C1C(c1ccco1)Nc1ccc3ccccc3c12 (stereo unspecified)	inconclusive [inhibitor, partial curve, poor fit]	–
CC(=O)N1CCN(c2ccc(Oc3nnnn3-c3ccccc3)cc2)CC1	inconclusive [inhibitor, full curve]	–
COCCCNC(=S)NNC(=O)c1cc(-c2ccncc2)nc2ccccc12	inconclusive [inhibitor, full curve]	–

Compound	Potency	activity change, negative = inhibition
CC(C(=O)N(C)C1CCS(=O)(=O)C1)N1C(=O)/C(=C/c2ccc(F)cc2)SC1=S (stereo unspecified)	–	inactive: -3.43%
CC[n+]1ccc(C(=O)NCc2ccccc2)cc1	inconclusive [inhibitor, full curve, poor fit]	–
CC(C)CN(C(=O)Cn1c(Cl)nc2c1c(=O)n(C)c(=O)n2C)C1CCS(=O)(=O)C1 (stereo unspecified)	inconclusive [inhibitor, full curve, poor fit]	–
Cc1ccccc1C(O)c1cccnc1 (stereo unspecified)	inconclusive [inhibitor, full curve, poor fit]	–
Cc1cccc(-c2nnc(-c3cccc(NC(=O)Cc4cccs4)c3)o2)c1	inconclusive [inhibitor, full curve, poor fit]	–
COc1ccc(NC(=O)CN2C(=O)NC(C)(c3ccccc3)C2=O)c(OC)c1 (stereo unspecified)	inconclusive [inhibitor, partial curve]	–
C/C=C(/C(=C/C)c1ccc(O)cc1)c1ccc(O)cc1	inconclusive [inhibitor, full curve, poor fit]	–
COc1ccc(NS(=O)(=O)c2ccc(OC)c(NC(=O)CCC3CCCC3)c2)cc1	inconclusive [inhibitor, full curve, poor fit]	–
[O-]/C(=C(\C(=S)Nc1cccc2ccccc12)[n+]1ccccc1)c1ccc(OC(F)F)cc1	inconclusive [inhibitor, full curve]	–
Cc1cc(CCN2CCC(=O)NC2=S)ccc1OC(C)C	inconclusive [inhibitor, full curve, poor fit]	–
CCOc1ccc(C(=O)Nc2c(C(=O)Nc3ccccc3OC)oc3ccccc23)cc1OCC	–	inactive: -11.8%
O=C(Nc1ncccc1O)c1ccc(S(=O)(=O)N2CCCC2)cc1	inconclusive [inhibitor, full curve, poor fit]	–
COc1ccc(/C=N\NC(=O)c2ccccc2Cl)cc1COc1c(F)c(F)c(F)c(F)c1F	inconclusive [inhibitor, partial curve, poor fit]	–
Cc1cccc(-c2cc3c(N=O)c4ccccc4c-3n[nH]2)c1	–	inactive: -12.3%
CC(C)=CCSc1nnc([C@@H](NC(=O)OC(C)(C)C)C(C)C)o1	–	inactive: -0.48%
C=CCn1c(C(CCCC)CC(C)O)n[nH]c1=S (stereo unspecified)	inconclusive [inhibitor, partial curve, poor fit]	–
CC[C@@]12C(=O)N(c3cccc(F)c3)C(=O)N1[C@H](c1ccc(F)cc1)[C@@H]1C(=O)N(C3CCCCC3)C(=O)[C@@H]12	inconclusive [inhibitor, full curve, poor fit]	–
Cc1c(C(=O)N2CCC(C)CC2)sc2ncnc(N(C)c3ccccc3)c12	inconclusive [inhibitor, full curve, poor fit]	–
O=[N+]([O-])c1ccc([N+](=O)[O-])c(Nc2ccc(N3CCOCC3)cc2)c1	inconclusive [inhibitor, single point]	–
CCCOc1ccc(CCCN=C(N)N)cc1Cl	–	inactive: 2.3%
CCn1c(CN2CCN(c3ccc(Cl)cc3)CC2)nc2ccccc21	inconclusive [inhibitor, single point]	–
CC(C)(C)OC(=O)N1CCN(C(=O)c2[nH]cnc2C(=O)N[C@@H](Cc2ccccc2)C(=O)OCc2ccccc2)CC1	inconclusive [inhibitor, full curve]	–

Compound	Potency	activity change, negative = inhibition
CC(C)(C)n1nc2c(c1NC(=O)c1ccc(F)c(F)c1)CS(=O)(=O)C2	–	inactive: 1.29%
CCOC(=O)N1CCN(CC(=O)Nc2cc3c(cc2C(C)=O)OCO3)CC1	inconclusive [inhibitor, full curve]	–
COc1ccc(C(=O)N/N=C(\C)Cn2cnc([N+](=O)[O-])n2)cc1	inconclusive [inhibitor, full curve]	–
Cc1cccc2nc(-c3cccc(NC(=O)Cc4ccccc4)c3)cn12	inconclusive [inhibitor, partial curve, poor fit]	–
CCc1ccc(Nc2n[n+](-c3ccccc3)c(-c3cc(OC)c(OC)cc3Br)s2)cc1	inconclusive [inhibitor, full curve, poor fit]	–
COc1ccc(-c2cc3cc(OC)c(OC)cc3c(C)n2)cc1	inconclusive [inhibitor, partial curve]	–
COC(=O)C1C(=O)C2=C(CC1C)NC(C)=C(C(=O)OCCOc1ccccc1)C2c1ccc(C)o1 (stereo unspecified)	–	inactive: -3.02%
CCOc1ccc(C2c3c(oc4ccccc4c3=O)C(=O)N2CCCN2CCOCC2)cc1 (stereo unspecified)	inconclusive [inhibitor, full curve, poor fit]	–
COc1ccccc1N/N=C/c1ccc2c(c1)OCO2	inconclusive [inhibitor, full curve, poor fit]	–
COC(=O)[C@@]1(Cc2ccc(F)cc2)[C@H]2c3cc(C(=O)N(C)C)n(CCc4ccc(OC)c(Br)c4)c3C[C@H]2CN1C(=O)c1ccccc1	inconclusive [inhibitor, full curve, poor fit]	–
CCn1c(C)csc1=NC(=O)c1ccccc1O	–	inactive: 6.27%
O=C(c1cnn2c(C(F)F)cc(C3CC3)nc12)N1CCOCC1	inconclusive [inhibitor, full curve, poor fit]	–
CC(C)COc1cccc(-c2cc(C(=O)N/N=C/c3ccncc3)c3ccccc3n2)c1	inconclusive [inhibitor, full curve, poor fit]	–
Cc1ccsc1CCN1C(=O)N(c2ccccc2)C(=O)C1CC(=O)Nc1ccc(Cl)cc1 (stereo unspecified)	–	inactive: -0.788%
COc1ccc(CC(=O)Nc2cc(S(=O)(=O)N3CCCC3)ccc2Cl)c(OC)c1	inconclusive [inhibitor, full curve, poor fit]	–
CC1Cc2ccccc2N1C(=O)c1nn(C)cc1Br (stereo unspecified)	–	inactive: -11.9%
O=c1[nH]c2cc(Cl)cc(Cl)c2[nH]c1=O	inconclusive [inhibitor, single point]	–
COc1ccc2c(c1)OC1(C)CC2C(C(=O)c2ccccc2OC)C(=O)N1 (stereo unspecified)	inconclusive [inhibitor, full curve, poor fit]	–
COc1cc(C=O)ccc1OCC(=O)N1CCOCC1	inconclusive [inhibitor, full curve, poor fit]	–
CCN(CC)c1ccc(NC(=O)c2cc(C)nc3c2c(C)nn3-c2ccc(C)cc2)c(C)c1	–	inactive: -6.55%
CC1(C)CC(=O)C=C(N2CCNCC2)C1	inconclusive [inhibitor, partial curve, poor fit]	–
CC(O)c1nc2ccccc2n1CC(=O)Nc1ccc(F)cc1Cl (stereo unspecified)	inconclusive [inhibitor, full curve]	–

— PubChem BioAssay AID485294 (National Center for Advancing Translational Sciences (NCATS), 2010)
